# In the supplement of paper PMC11880418:
# Where a name gives a salt, the structure may show the parent alone. This is one part of the list. The data scatter; read single values as rough.
# Experiments:
# Assay in all cases: ALDHbr (CSC) cell proportion score relative to DMSO vehicle (ratio to DMSO); breast (SUM159) / gastric (MKN45) / pancreatic (PANC1) / colon cancer lines; ALDHbr cells have high ALDH activity and are rich in cancer stem cells (CSC); higher = more CSC (ALDHbr) cells remaining
# Conditions in all cases: 10 µM; 72 h
# MKN45 = test system: MKN45
# PANC1 = test system: PANC1
# SUM159 = test system: SUM159
# T84 = test system: T84
# 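Further: High-content imaging of ALDEFLUOR-stained cells with Hoechst-labelled nuclei in 384-well plates, triplicate wells, scored as Z-score against 0.1% DMSO vehicle, negative meaning fewer ALDHbr cells.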
smiles,measurement,setting,value
O=C1CC2(CCCC2)CC(=O)N1CCCCN1CCN(c2ncccn2)CC1 [Buspirone hydrochloride],ALDHbr,MKN45,0.545
same,ALDHbr,PANC1,0.701
same,ALDHbr,SUM159,0.59
same,ALDHbr,T84,0.834
NCCCC(O)(P(=O)(O)O)P(=O)(O)O [Alendronate sodium],ALDHbr,MKN45,1.12
same,ALDHbr,PANC1,0.811
same,ALDHbr,SUM159,1.34
same,ALDHbr,T84,1.08
CO[C@H]1/C=C/O[C@@]2(C)Oc3c(C)c(O)c4c(O)c(c(/C=N/N5CCN(C6CCCC6)CC5)c(O)c4c3C2=O)NC(=O)/C(C)=C\C=C\[C@H](C)[C@H](O)[C@@H](C)[C@@H](O)[C@@H](C)[C@H](OC(C)=O)[C@@H]1C [Rifapentine],ALDHbr,MKN45,1.22
same,ALDHbr,PANC1,0.935
same,ALDHbr,SUM159,0.715
same,ALDHbr,T84,0.801
CCS(=O)(=O)CCn1c([N+](=O)[O-])cnc1C [Tinidazole],ALDHbr,MKN45,0.987
same,ALDHbr,PANC1,1.03
same,ALDHbr,SUM159,1.11
same,ALDHbr,T84,0.935
C[N+](C)(CCOc1ccccc1)Cc1ccccc1.O=C([O-])c1cc2ccccc2cc1O [Bephenium hydroxynaphthoate],ALDHbr,MKN45,0.939
same,ALDHbr,PANC1,0.895
same,ALDHbr,SUM159,1.23
same,ALDHbr,T84,0.993
COc1cc2nc(N(C)CCCNC(=O)C3CCCO3)nc(N)c2cc1OC (stereo unspecified) [Alfuzosin hydrochloride],ALDHbr,MKN45,0.96
same,ALDHbr,PANC1,0.907
same,ALDHbr,SUM159,0.964
same,ALDHbr,T84,0.994
Clc1ccc2c(c1)C(N1CCNCC1)=Nc1ccccc1O2 [Amoxapine],ALDHbr,MKN45,1.22
same,ALDHbr,PANC1,0.77
same,ALDHbr,SUM159,0.607
same,ALDHbr,T84,0.75
N=C(N)NC(=N)NCCc1ccccc1 [Phenformin hydrochloride],ALDHbr,MKN45,0.864
same,ALDHbr,PANC1,1.24
same,ALDHbr,SUM159,1.47
same,ALDHbr,T84,0.935
CCCCCCC[N+](CC)(CC)CCCCc1ccc(Cl)cc1 [Clofilium tosylate],ALDHbr,MKN45,0.449
same,ALDHbr,PANC1,0.794
same,ALDHbr,SUM159,0.706
same,ALDHbr,T84,0.44
CCOCCn1c(N2CCCN(C)CC2)nc2ccccc21 [Emedastine],ALDHbr,MKN45,0.993
same,ALDHbr,PANC1,0.872
same,ALDHbr,SUM159,1.1
same,ALDHbr,T84,0.847
CN(C)CCN(Cc1ccc(Cl)cc1)c1ccccn1 [Chloropyramine hydrochloride],ALDHbr,MKN45,0.949
same,ALDHbr,PANC1,1.08
same,ALDHbr,SUM159,0.965
same,ALDHbr,T84,0.888
C/C=C(/C(=C/C)c1ccc(O)cc1)c1ccc(O)cc1 [Dienestrol],ALDHbr,MKN45,1.16
same,ALDHbr,PANC1,0.809
same,ALDHbr,SUM159,0.906
same,ALDHbr,T84,1.01
CN(C)C/C=C(/c1ccc(Br)cc1)c1cccnc1 [Zimelidine dihydrochloride monohydrate],ALDHbr,MKN45,0.992
same,ALDHbr,PANC1,0.909
same,ALDHbr,SUM159,0.855
same,ALDHbr,T84,1.02
CN(CCOc1ccc(CC2SC(=O)NC2=O)cc1)c1ccccn1 (stereo unspecified) [Rosiglitazone Hydrochloride],ALDHbr,MKN45,0.831
same,ALDHbr,PANC1,0.848
same,ALDHbr,SUM159,0.584
same,ALDHbr,T84,0.668
O=C1CCC(N2C(=O)c3ccccc3C2=O)C(=O)N1 (stereo unspecified) [Thalidomide],ALDHbr,MKN45,0.95
same,ALDHbr,PANC1,0.965
same,ALDHbr,SUM159,1.1
same,ALDHbr,T84,0.985
CNS(=O)(=O)Cc1ccc2[nH]cc(CCN(C)C)c2c1 [Sumatriptan succinate],ALDHbr,MKN45,1.05
same,ALDHbr,PANC1,0.938
same,ALDHbr,SUM159,0.921
same,ALDHbr,T84,0.9
N[C@@H]1CONC1=O [D-cycloserine],ALDHbr,MKN45,1.06
same,ALDHbr,PANC1,1.03
same,ALDHbr,SUM159,1.03
same,ALDHbr,T84,0.993
CN1C(=O)OC(C)(C)C1=O [Trimethadione],ALDHbr,MKN45,0.924
same,ALDHbr,PANC1,0.932
same,ALDHbr,SUM159,1.01
same,ALDHbr,T84,0.946
CCCCNc1ccc(C(=O)OCCOCCOCCOCCOCCOCCOCCOCCOCCOC)cc1 [Benzonatate],ALDHbr,MKN45,0.717
same,ALDHbr,PANC1,0.751
same,ALDHbr,SUM159,0.902
same,ALDHbr,T84,0.897
CCCCN(CCCC)CCC(O)c1cc2c(Cl)cc(Cl)cc2c2cc(C(F)(F)F)ccc12 (stereo unspecified) [Halofantrine hydrochloride],ALDHbr,MKN45,1.26
same,ALDHbr,PANC1,3
same,ALDHbr,SUM159,0.817
same,ALDHbr,T84,0.445
NC1CCN(c2c(F)cc3c(=O)c(C(=O)O)cn(C4CC4)c3c2Cl)C1 (stereo unspecified) [Clinafloxacin],ALDHbr,MKN45,0.87
same,ALDHbr,PANC1,0.999
same,ALDHbr,SUM159,0.952
same,ALDHbr,T84,0.997
CN1CCCC(CC2c3ccccc3Sc3ccccc32)C1 (stereo unspecified) [Metixene hydrochloride],ALDHbr,MKN45,1.1
same,ALDHbr,PANC1,1.08
same,ALDHbr,SUM159,0.341
same,ALDHbr,T84,0.329
N[C@@H](C(=O)N[C@@H]1C(=O)N2C(C(=O)O)=C(Cl)CC[C@H]12)c1ccccc1 [Loracarbef],ALDHbr,MKN45,1.2
same,ALDHbr,PANC1,0.935
same,ALDHbr,SUM159,1.03
same,ALDHbr,T84,0.986
OC(CCN1CCCCC1)(c1ccccc1)c1ccccc1 [Pridinol methanesulfonate salt],ALDHbr,MKN45,0.986
same,ALDHbr,PANC1,0.912
same,ALDHbr,SUM159,1.14
same,ALDHbr,T84,0.938
NC(Cc1cc(I)c(Oc2cc(I)c(O)c(I)c2)c(I)c1)C(=O)O (stereo unspecified) [Thyroxine (L)],ALDHbr,MKN45,1.19
same,ALDHbr,PANC1,1.17
same,ALDHbr,SUM159,1.12
same,ALDHbr,T84,0.812
NCCc1cc[nH]n1 [Betazole hydrochloride],ALDHbr,MKN45,1.19
same,ALDHbr,PANC1,0.904
same,ALDHbr,SUM159,1.04
same,ALDHbr,T84,0.893
O=C(NCCNCC(O)COc1ccc(O)cc1)N1CCOCC1 (stereo unspecified) [Xamoterol hemifumarate],ALDHbr,MKN45,0.944
same,ALDHbr,PANC1,0.924
same,ALDHbr,SUM159,1.84
same,ALDHbr,T84,0.854
C[C@H]1C[C@H]2[C@@H]3CCC4=CC(=O)C=C[C@]4(C)[C@@]3(F)[C@@H](O)C[C@]2(C)[C@@]1(O)C(=O)CO [Betamethasone],ALDHbr,MKN45,1.09
same,ALDHbr,PANC1,0.663
same,ALDHbr,SUM159,1.18
same,ALDHbr,T84,0.973
O=S(=O)(O)CCS [Mesna],ALDHbr,MKN45,1.3
same,ALDHbr,PANC1,0.992
same,ALDHbr,SUM159,0.975
same,ALDHbr,T84,1.06
CC(C)(Oc1ccc(Cl)cc1)C(=O)O [Clofibric acid],ALDHbr,MKN45,1.17
same,ALDHbr,PANC1,0.979
same,ALDHbr,SUM159,0.954
same,ALDHbr,T84,0.972
Cc1cc(=O)oc2cc(O)ccc12 [Hymecromone],ALDHbr,MKN45,0.848
same,ALDHbr,PANC1,0.839
same,ALDHbr,SUM159,1.24
same,ALDHbr,T84,1
Nc1nc(N)c2nc(-c3ccccc3)c(N)nc2n1 [Triamterene],ALDHbr,MKN45,0.2
same,ALDHbr,PANC1,0.73
same,ALDHbr,SUM159,1.48
same,ALDHbr,T84,0.656
CCOC(=O)/C=C(C)/C=C/C=C(C)/C=C/c1c(C)cc(OC)c(C)c1C [Etretinate],ALDHbr,MKN45,0.988
same,ALDHbr,PANC1,1.04
same,ALDHbr,SUM159,0.437
same,ALDHbr,T84,0.895
CC(C)[C@H](N)C(=O)OCCOCn1cnc2c(=O)nc(N)[nH]c21 [Valacyclovir hydrochloride],ALDHbr,MKN45,0.966
same,ALDHbr,PANC1,0.786
same,ALDHbr,SUM159,0.997
same,ALDHbr,T84,0.996
CCOc1ccc(NC(C)=O)cc1 [Phenacetin],ALDHbr,MKN45,0.96
same,ALDHbr,PANC1,1.02
same,ALDHbr,SUM159,0.932
same,ALDHbr,T84,0.96
CC(C)(C)NC[C@H](O)COc1cccc2c1CCCC2=O [(-) -Levobunolol hydrochloride],ALDHbr,MKN45,0.929
same,ALDHbr,PANC1,0.865
same,ALDHbr,SUM159,0.848
same,ALDHbr,T84,0.871
Cc1cc(C(C)(C)C)c(O)c(C)c1CC1=NCCN1 [Oxymetazoline hydrochloride],ALDHbr,MKN45,1.03
same,ALDHbr,PANC1,0.916
same,ALDHbr,SUM159,0.875
same,ALDHbr,T84,0.918
NC(=O)c1ncn([C@@H]2O[C@H](CO)[C@@H](O)[C@H]2O)n1 [Ribavirin],ALDHbr,MKN45,1.54
same,ALDHbr,PANC1,0.967
same,ALDHbr,SUM159,0.753
same,ALDHbr,T84,0.778
CCCCC(O)c1ccccc1 (stereo unspecified) [Fenipentol],ALDHbr,MKN45,1.03
same,ALDHbr,PANC1,1.07
same,ALDHbr,SUM159,0.942
same,ALDHbr,T84,0.882
